Several values for one entry are separate records, joined by “and”; a condition that tells them apart may be missing. Identical values can stand only once. The list shows a part of the results. These are further read-outs of the screen, such as a control signal, another cell line or another target. No call is given for them.
Columns and labels:
Assay in all cases: Primary Screen for Target Class Profiling of Small Molecule Inhibitors of Methyltransferases
[1] = molecular target: Glycine N-methyltransferase (Homo sapiens) (UniProt Q14749); settings: purified enzyme, MTase-Glo SAH luminescence; measured here: GNMT inhibition; at 40 µM; stronger effect = lower value
From the text: (§1) PI: Matthew D. Hall Ph.D. and Quinlin M. Hanson Ph.D.
(§2) National Center for Advancing Translational Sciences (NCATS)
(§3) National Institute of Health (NIH), Rockville, MD
(§4) Target class profiling (TCP) is a chemical biology approach amenable to investigating understudied biological targets. TCP is achieved by developing a generalizable assay platform and applying it to screen a curated set of compound libraries against representative members of a target class. Small molecule methyltransferases (SMMTase) are a subclass of methyltransferase that act on metabolites to modulate signaling pathways, metabolize xenobiotics, or balance the available methyl pool. We screened four curated libraries totaling 27,574 unique compounds against the SMMTases nicotinamide N-methyltransferase (NNMT), phenylethanolamine N-methyltransferase (PNMT), histamine N-methyltransferase (HNMT), glycine N-methyltransferase (GNMT), catechol O-methyltransferase (COMT), and guanidinoacetate N-methyltransferase (GAMT). The data generated by this TCP can be leveraged for informed tool molecule development. For example, in the associated publication we identified a chemotype of HNMT-selective inhibitors. Additionally, we identified a putative SMMTase-selective inhibitor with potential as a tool molecule for studying broader methyltransferase biology.
(§5) High-through put screening assays were developed at the National Center for Advancing Translational Science (NCATS) for the enzymes NNMT, PNMT, HNMT, GNMT, COMT, and GAMT. Enzymatic activity was measured as a function of SAM cofactor conversion using the MTase Glo kit (Promega) for all enzymes. All assays were performed in 1536-well format with substrates and SAM concentrations at KM values. Enzyme concentration and assay timing were optimized for 10-20% SAM conversion. Initial screening of 27,574 compounds was done as single-point assays using the highest compound concentration (40 uM). […] These compounds were replated in 11-point dose response and assayed against NNMT, PNMT, HNMT, GNMT, COMT, GAMT, and a counter-assay. The IC50 and efficacy (maximal response) values were determined for each dose-response curve. These values are also accounted for in the area under the curve (AUC) values.
(§6) PROTOCOL TABLE (as described by Inglese J, Shamu CE and Guy RK. 2007)
(§7) SEQUENCE No. (e.g., 1, 2, 3, etc.); […] (e.g., Cells, Incubation, Reagent, etc.); VALUE; DESCRIPTION.
(§8) 1; Reagent; 2 uL; SMMTase Enzyme (2x) in reaction buffer, columns 1- 48.
(§9) 2; Reagent; 1 uL; SAM (4x) in reaction buffer, columns 1-48.
(§10) 3; Controls; 23 nL; DMSO in column 4; sinefungin in DMSO (0 uM - 40 uM) in 7-point 1:2 dilution series (n = 2) in column 2.
(§11) 4; Compounds; 23 nL; Columns 5-48.
(§12) 5; Reagent; 1 uL; Substrate (4x) in reaction buffer, columns 2-48.
(§13) 6; Time; 20-30 min; Incubation.
(§14) 7; Reagent; 1 uL; MTase-Glo reagent (5X), columns 1-48.
(§15) 8; Time; 30 min; Incubation.
(§16) 9; Reagent; 5 uL; MTase-Glo Detection reagent, columns 1-48.
(§17) 10; Time; 30 min; Incubation, luminescence evolution.
(§18) 11; Detection; Luminescence; ViewLux uHTS Microplate Imager (PerkinElmer).
(§19) NOTES (numbers refer to Sequence numbers above)
(§20) 1, 2, 5. White Medium Binding Greiner 1536-well plates (Cat #789175-F, Greiner Bio-One, Monroe, NC); Reaction buffer: 50 mM Tris, pH 8.0, 3 mM MgCl2, 1 mM EDTA, 50 mM NaCl, 1 mM DTT, and 0.1 mg/mL BSA. Evaporation was prevented by covering assay plates with metal lids containing holes to allow gas diffusion.
(§21) 1. Six SMMTase were profiled: HNMT, GNMT, PNMT, COMT, NNMT, GAMT
(§22) 5. The corresponding substrate was used for each enzyme: HNMT - 5.3 uM Histamine; GNMT - >500 uM Glycine; PNMT - 16.2 uM Norephinephrine; COMT - 13.7 uM Norephinephrine; NNMT - 3.8 uM Nicotinamide; GAMT - 2.5 uM Guanidinoacetate.6, 8, 10. Room temperature
(§23) 6. Final reaction conditions: 10 nM COMT, 5 uM SAM, 15 uM norepinephrine, 50 mM Tris, pH 8.0, 3 mM MgCl2, 1 mM EDTA, 50 mM NaCl, 1 mM DTT, and 0.1 mg/mL BSA; refer to tables 2 and S1 for specific timing.
8. […]

[2] = molecular target: Guanidinoacetate N-methyltransferase (Homo sapiens) (UniProt Q14353); settings: purified enzyme, MTase-Glo SAH luminescence; measured here: GAMT inhibition; at 40 µM; stronger effect = lower value
From the text: as §1, §2, §3, §4, §5, §6, §7, §8, §9, §10, §11, §12, §13, §14, §15, §16, §17, §18, §19, §20, §21, §22, §23
8. […]

[3] = molecular target: Histamine N-methyltransferase (Homo sapiens) (UniProt P50135); settings: purified enzyme, MTase-Glo SAH luminescence; measured here: HNMT inhibition; at 40 µM; stronger effect = lower value
From the text: as §1, §2, §3, §4, §5, §6, §7, §8, §9, §10, §11, §12, §13, §14, §15, §16, §17, §18, §19, §20, §21, §22, §23
8. […]

[4] = molecular target: Nicotinamide N-methyltransferase (Homo sapiens) (UniProt P40261); settings: purified enzyme, MTase-Glo SAH luminescence; measured here: NNMT inhibition; at 40 µM; stronger effect = lower value
From the text: as §1, §2, §3, §4, §5, §6, §7, §8, §9, §10, §11, §12, §13, §14, §15, §16, §17, §18, §19, §20, §21, §22, §23
8. […]

[5] = molecular target: Phenylethanolamine N-methyltransferase (Homo sapiens) (UniProt P11086); settings: purified enzyme, MTase-Glo SAH luminescence; measured here: PNMT inhibition; at 40 µM; stronger effect = lower value
From the text: as §1, §2, §3, §4, §5, §6, §7, §8, §9, §10, §11, §12, §13, §14, §15, §16, §17, §18, §19, §20, §21, §22, §23
8. […]
On the % scale 0 is the no-effect control and ±100 the full control effect.

O=C(Cc1ccc(-c2ccc(OCCN3CCOCC3)cc2)cn1)NCc1ccccc1
activity change, negative = inhibition [1]: 0.255% | activity change, negative = inhibition [2]: -2.45% | activity change, negative = inhibition [3]: 6.16% | activity change, negative = inhibition [4]: -10.1% | activity change, negative = inhibition [5]: 0.929%

CCCN1C(=O)c2ccc(-c3ccccc3)n2CC1(C)C(=O)NC1CCCCCCC1 (stereo not given)
activity change, negative = inhibition [1]: -9.69% | activity change, negative = inhibition [2]: -1.23% | activity change, negative = inhibition [3]: -4.43% | activity change, negative = inhibition [4]: -4.92% | activity change, negative = inhibition [5]: -4.99%

CC(C)CNC(=O)c1ccc2c(=O)n(C(C)C)c3nn(C)c(=O)n3c2c1
activity change, negative = inhibition [1]: 5.81% | activity change, negative = inhibition [2]: 1.02% | activity change, negative = inhibition [3]: 12.7% | activity change, negative = inhibition [4]: 3.62% | activity change, negative = inhibition [5]: -1.18%

Cc1ccc(Nc2ccn3c(=O)n(CC(=O)Nc4ccc(C)c(F)c4)nc3n2)cc1
activity change, negative = inhibition [1]: -3.38% | activity change, negative = inhibition [2]: 4.88% | activity change, negative = inhibition [3]: -6.75% | activity change, negative = inhibition [4]: -5.4% | activity change, negative = inhibition [5]: -4.27%

CCCn1c(=O)c2ccc(C(=O)NCC(C)C)cc2n2c(=O)n(CC(=O)NCc3ccc(C)cc3)nc12
activity change, negative = inhibition [1]: 7.05% | activity change, negative = inhibition [2]: 2.65% | activity change, negative = inhibition [3]: 7.44% | activity change, negative = inhibition [4]: 6.64% | activity change, negative = inhibition [5]: 7.67%

CC(C)OCCCn1c(=O)c2cc(Cl)ccc2n2c(SCc3cccc(Cl)c3)nnc12
activity change, negative = inhibition [1]: -2.33% | activity change, negative = inhibition [2]: 0% | activity change, negative = inhibition [3]: 5.26% | activity change, negative = inhibition [4]: -6.23% | activity change, negative = inhibition [5]: 1.99%

COc1ccc(CNC(=O)CCCc2nnc3n4nc(-c5ccccc5)nc4c4ccccc4n23)cc1
activity change, negative = inhibition [1]: -10.3% | activity change, negative = inhibition [2]: 0% | activity change, negative = inhibition [3]: 2.64% | activity change, negative = inhibition [4]: 6.18% | activity change, negative = inhibition [5]: -1.08%

Cc1ccc(Cn2nc3n(C(C)C)c(=O)c4ccc(C(=O)NC5CCCC5)cc4n3c2=O)cc1
activity change, negative = inhibition [1]: 2.31% | activity change, negative = inhibition [2]: 4.32% | activity change, negative = inhibition [3]: -0.176% | activity change, negative = inhibition [4]: 3.06% | activity change, negative = inhibition [5]: 3.11%

O=S(=O)(Nc1cccnc1)c1ccc(Cl)c(-c2nnc(-c3ccccc3)o2)c1
activity change, negative = inhibition [1]: -1.2% | activity change, negative = inhibition [2]: 2.04% | activity change, negative = inhibition [3]: 13.5% | activity change, negative = inhibition [4]: 5.52% | activity change, negative = inhibition [5]: 7.5%

C/C=C(\C)C(=O)O[C@H]1C=CC(=O)O[C@H]1/C=C/[C@H](O)[C@@H](C)O
activity change, negative = inhibition [1]: 0.207% | activity change, negative = inhibition [2]: 5.89% | activity change, negative = inhibition [3]: 12.1% | activity change, negative = inhibition [4]: -5.16% | activity change, negative = inhibition [5]: 2.04%

C=CC(C)=C[C@@]1(C)SC(=O)C(C)=C1O
activity change, negative = inhibition [1]: 0.538% | activity change, negative = inhibition [2]: 13.2% | activity change, negative = inhibition [3]: 7.24% | activity change, negative = inhibition [4]: 0.273% | activity change, negative = inhibition [5]: 7.26%

CC(=O)Nc1ccc(NC(=S)NC(=O)c2ccc(C(C)(C)C)cc2)cc1
activity change, negative = inhibition [1]: 7.12% | activity change, negative = inhibition [2]: 11.8% and 2.01% | activity change, negative = inhibition [3]: 8.09% | activity change, negative = inhibition [4]: -7.03% and -11.8% | activity change, negative = inhibition [5]: 6.84% and 7.42%

CCOc1cc(C(=O)N2CCC(N3CCN(C)CC3)CC2)ccc1Nc1ncc2c(n1)N(C1CCCC1)c1ccccc1C(=O)N2C
activity change, negative = inhibition [1]: -4.4% | activity change, negative = inhibition [2]: 13.1% | activity change, negative = inhibition [3]: -18.3% | activity change, negative = inhibition [4]: -25.1% | activity change, negative = inhibition [5]: 3.31%

N#Cc1c(C2CCNCC2)cc(-c2c(O)cccc2OCC2CC2)nc1N
activity change, negative = inhibition [1]: -11.6% | activity change, negative = inhibition [2]: -1.32% | activity change, negative = inhibition [3]: -12.6% | activity change, negative = inhibition [4]: -69.2% | activity change, negative = inhibition [5]: -7.72%

Reference: PubChem BioAssay AID1745853 (National Center for Advancing Translational Sciences (NCATS), 2022)
